Test results taken from the supplement of paper PMC10126150.
Sequences with one replicate were seen in a single cluster, so their values are uncertain.

Tested on: ATP
Assay: switch fluorescence ratio, 500 uM ATP over buffer (Cy3 cluster intensity, sum of 5 cycles each) (fold (ratio)); higher = stronger signal-on switching upon ATP binding; sequences stand for … in TCGTCGGCAGCGTCAGATGTGTATAAGAGACAGTTTTTTTTTTTTTTTTTTTTTTTTT…TC
Conditions: aptamer strand: ATP DNA aptamer (quencher-CACCTGGGGGAGTATTGCGGAGGAAGG + anchor), 100 nM annealed; ATP concentration: 500 uM; one replicate
In short: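 Cy3-labelled switching-strand clusters on a modified Illumina MiSeq flow-cell were annealed to 100 nM quencher-labelled ATP aptamer, imaged in selection buffer, then imaged after 15 min with 500 uM ATP at 22 °C. Five buffer/ATP cycles ran, with NaOH stripping and re-annealing between them. The fluorescence ratio is summed target-cycle over summed buffer-cycle Cy3 intensity per cluster, averaged per switch-domain sequence. Clusters outside 100-1000 RFU were excluded.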
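Note: ATP exposure 15 min at 22 °C before imaging.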

Q: Which switch fluorescence ratio does the source give for CTGATCCTAG here?
A: 1.02

Q: How did the switch fluorescence ratio turn out when CTGATCGTAT was run?
A: 1.14

Q: How did the switch fluorescence ratio turn out when CTGATTAAG was run?
A: 1.01

Q: For CTGATTACCC, which switch fluorescence ratio is on record?
A: 1.01

Q: For CTGCCATAA, which switch fluorescence ratio is on record?
A: 1.33

Q: With CTGCCCCCGC as the sequence, how does the switch fluorescence ratio read?
A: 1.54

Q: How did the switch fluorescence ratio turn out when CTGCCGCCGA was run?
A: 1.3

Q: How did the switch fluorescence ratio turn out when CTGCCTTGTG was run?
A: 1.03

Q: For CTGCGAGAAC, which switch fluorescence ratio is on record?
A: 1.19

Q: How did the switch fluorescence ratio turn out when CTGCGGACGT was run?
A: 1.04

Q: CTGCGGAGGG was tested. Which switch fluorescence ratio did it give?
A: 0.969

Q: How did the switch fluorescence ratio turn out when CTGCGGTGCT was run?
A: 1.2

Q: Which switch fluorescence ratio does the source give for CTGCGTATT here?
A: 1.05

Q: CTGCGTTGA was tested. Which switch fluorescence ratio did it give?
A: 1.02

Q: For CTGCTCCC, which switch fluorescence ratio is on record?
A: 1.11

Q: Which switch fluorescence ratio does the source give for CTGCTCGGAC here?
A: 1.22

Q: For CTGCTCGGCG, which switch fluorescence ratio is on record?
A: 0.999

Q: How did the switch fluorescence ratio turn out when CTGCTTTGTG was run?
A: 1.01

Q: Which switch fluorescence ratio does the source give for CTGGAAAATA here?
A: 0.986

Q: For CTGGAAAGCG, which switch fluorescence ratio is on record?
A: 0.986

Q: Which switch fluorescence ratio does the source give for CTGGAAGGAT here?
A: 0.996

Q: How did the switch fluorescence ratio turn out when CTGGAATCAT was run?
A: 1.01

Q: How did the switch fluorescence ratio turn out when CTGGACTCTG was run?
A: 0.967

Q: With CTGGATACAG as the sequence, how does the switch fluorescence ratio read?
A: 1.01

Q: CTGGATACGA was tested. Which switch fluorescence ratio did it give?
A: 1.13

Q: With CTGGATAGGG as the sequence, how does the switch fluorescence ratio read?
A: 0.95

Q: For CTGGATAGTT, which switch fluorescence ratio is on record?
A: 0.961

Q: Which switch fluorescence ratio does the source give for CTGGATGAGA here?
A: 1.01

Q: CTGGATTGTG was tested. Which switch fluorescence ratio did it give?
A: 0.973

Q: How did the switch fluorescence ratio turn out when CTGGCAATGG was run?
A: 3.27

Q: CTGGCAGCCG was tested. Which switch fluorescence ratio did it give?
A: 1.03

Q: CTGGCCCATT was tested. Which switch fluorescence ratio did it give?
A: 0.978

Q: For CTGGCCGGTT, which switch fluorescence ratio is on record?
A: 1.06

Q: CTGGCGACCT was tested. Which switch fluorescence ratio did it give?
A: 1.08

Q: CTGGCGGCGC was tested. Which switch fluorescence ratio did it give?
A: 1.01

Q: For CTGGGCTGAG, which switch fluorescence ratio is on record?
A: 1.01

Q: How did the switch fluorescence ratio turn out when CTGGGGAGAT was run?
A: 0.998

Q: For CTGGGTAGGT, which switch fluorescence ratio is on record?
A: 0.99

Q: CTGGGTGAA was tested. Which switch fluorescence ratio did it give?
A: 1.01

Q: How did the switch fluorescence ratio turn out when CTGGGTGTCA was run?
A: 1.03

Q: With CTGGGTGTTG as the sequence, how does the switch fluorescence ratio read?
A: 1

Q: Which switch fluorescence ratio does the source give for CTGGGTTATC here?
A: 1.01

Q: With CTGGTAAAAG as the sequence, how does the switch fluorescence ratio read?
A: 1.01

Q: How did the switch fluorescence ratio turn out when CTGGTACTTC was run?
A: 1.02

Q: Which switch fluorescence ratio does the source give for CTGGTACTTT here?
A: 0.958

Q: With CTGGTAGCAG as the sequence, how does the switch fluorescence ratio read?
A: 0.988

Q: With CTGGTAGCGA as the sequence, how does the switch fluorescence ratio read?
A: 2.06

Q: CTGGTCTACC was tested. Which switch fluorescence ratio did it give?
A: 1

Q: How did the switch fluorescence ratio turn out when CTGGTCTTCA was run?
A: 1.04

Q: For CTGGTGAGT, which switch fluorescence ratio is on record?
A: 0.996

Q: For CTGGTGCCGT, which switch fluorescence ratio is on record?
A: 1.13

Q: How did the switch fluorescence ratio turn out when CTGGTTAGCA was run?
A: 0.992

Q: With CTGGTTGTCG as the sequence, how does the switch fluorescence ratio read?
A: 1.02

Q: CTGTAAAAGG was tested. Which switch fluorescence ratio did it give?
A: 1.01

Q: Which switch fluorescence ratio does the source give for CTGTAATTAG here?
A: 0.977

Q: For CTGTACCCCT, which switch fluorescence ratio is on record?
A: 1.12

Q: How did the switch fluorescence ratio turn out when CTGTACGATA was run?
A: 1.11

Q: How did the switch fluorescence ratio turn out when CTGTACTATG was run?
A: 0.977

Q: For CTGTACTTTT, which switch fluorescence ratio is on record?
A: 1

Q: For CTGTAGATTC, which switch fluorescence ratio is on record?
A: 1.03

Q: With CTGTCAATCC as the sequence, how does the switch fluorescence ratio read?
A: 2.58

Q: How did the switch fluorescence ratio turn out when CTGTCCCAGC was run?
A: 1.07

Q: Which switch fluorescence ratio does the source give for CTGTCGATCG here?
A: 1.03

Q: For CTGTCGCGAC, which switch fluorescence ratio is on record?
A: 0.994

Q: For CTGTCGGTTC, which switch fluorescence ratio is on record?
A: 1.06

Q: CTGTGATTTT was tested. Which switch fluorescence ratio did it give?
A: 1.03

Q: Which switch fluorescence ratio does the source give for CTGTGCTCCG here?
A: 1.18

Q: For CTGTGGCAA, which switch fluorescence ratio is on record?
A: 3.76

Q: CTGTGGTGTA was tested. Which switch fluorescence ratio did it give?
A: 0.993

Q: With CTGTGTATGC as the sequence, how does the switch fluorescence ratio read?
A: 1.05

Q: Which switch fluorescence ratio does the source give for CTGTGTTCAT here?
A: 1.04

Q: With CTGTGTTTCT as the sequence, how does the switch fluorescence ratio read?
A: 0.992

Q: CTGTTATTTG was tested. Which switch fluorescence ratio did it give?
A: 0.972

Q: CTGTTCGCTC was tested. Which switch fluorescence ratio did it give?
A: 1.29

Q: With CTGTTCTAGG as the sequence, how does the switch fluorescence ratio read?
A: 1.03

Q: With CTGTTGCCAG as the sequence, how does the switch fluorescence ratio read?
A: 0.992

Q: For CTGTTGGTTG, which switch fluorescence ratio is on record?
A: 1.01

Q: How did the switch fluorescence ratio turn out when CTGTTGTC was run?
A: 1

Q: With CTGTTGTTTT as the sequence, how does the switch fluorescence ratio read?
A: 0.983

Q: How did the switch fluorescence ratio turn out when CTGTTTCTCA was run?
A: 0.981

Q: Which switch fluorescence ratio does the source give for CTGTTTTCCC here?
A: 1

Q: For CTGTTTTTTC, which switch fluorescence ratio is on record?
A: 1.03

Q: CTTAAAATAA was tested. Which switch fluorescence ratio did it give?
A: 1.01

Q: With CTTAAAGGAG as the sequence, how does the switch fluorescence ratio read?
A: 1.01

Q: CTTAAAGGGG was tested. Which switch fluorescence ratio did it give?
A: 1
